B1: PhoQ; a variant is named by its letters at X, in order, P23837 (parent)
chain: MKKLLRLFFPLSLRVRFLLATAAVVLVLSLAYGMVALIGYSVSFDKTTFRLLRGESNLFYTLAKWENNKLHVELPENIDKQSPTMTLIYDENGQLLWAQRDVPWLMKMIQPDWLKSNGFHEIEADVNDTSLLLSGDHSIQQQLQEVREDDDDAEMTHSVAVNVYPATSRMPKLTIVVVDTIPVELKSSYMVWSWFIYVLSANLLLVIPLLWVAAWWSLRPIEALAKEVRELEEHNRELLNPATTRELTSLVRNLNRLLKSERERYDKYRTTLTDLTHSLKTPLXXLQXXLRSLRSEKMSVSDAEPVMLEQISRISQQIGYYLHRASMRGGTLLSRELHPVAPLLDNLTSALNKVYQRKGVNISLDISPEISFVGEQNDFVEVMGNVLDNACKYCLEFVEISARQTDEHLYIVVEDDGPGIPLSKREVIFDRGQRVDTLRPGQGVGLAVAREITEQYEGKIVAGESMLGGARMEVIFGRQHSAPKDE

This is one part of the list.

The variants in this assay derive from B1. Put plainly: enrichment ratio after two sorts for PhoP signalling (ratio (wild type AVST 3.29)); higher = more functional. Particulars: with PhoP (E. coli).
As for VTRE, the enrichment ratio is at most 0.25. With GVAW, the enrichment ratio amounted to 4.77. Turning to SIPC, the enrichment ratio came out at 1.34. Under RSIE stands at most 0.25; under WEKL, at most 0.25. In the case of MRLQ, the enrichment ratio is at most 0.25. On to ITKL, for which the enrichment ratio was at most 0.25. Under AHCM stands 9.33; under YGAF, at most 0.25. For the variant PRID, the enrichment ratio was at most 0.25. Then HSYE, with at most 0.25; and ITFE, with at most 0.25; and SMQM, with 20.4. Under FNAE stands at most 0.25; under YHAY, at most 0.25; under AMCH, 8.89. QMDC: the enrichment ratio was at most 0.25.

Consider THGY, for which the enrichment ratio was determined as 13.8. Under LWVV stands at most 0.25. On to VVDL, for which the enrichment ratio was at most 0.25. As to MELF, the enrichment ratio was 0.528. As to TNPY, the enrichment ratio is at most 0.25. For the variant FKNY, the enrichment ratio is at most 0.25.

In the case of SEFC, the enrichment ratio worked out at 10.4.

For the variant TDFI, the enrichment ratio is at most 0.25. In the case of FPDK, the enrichment ratio was at most 0.25. For NLCP, the enrichment ratio is at most 0.25.

Take KVDG: the enrichment ratio was at most 0.25.

Take KDIY: the enrichment ratio was at most 0.25. Consider FFGQ, for which the enrichment ratio was at most 0.25.

For the variant YQKA, the enrichment ratio was at most 0.25. As to PKLQ, the enrichment ratio was at most 0.25.

In the case of VMPS, the enrichment ratio was 0.518. For the variant AQSH, the enrichment ratio was 2.81.

For the variant DPSH, the enrichment ratio is at most 0.25. Regarding GRLQ, the enrichment ratio is at most 0.25. Under SAGE stands 3.06; under SVVS, 3.15. MNAQ: the enrichment ratio worked out at 11.8. Turning to YSNQ, the enrichment ratio is at most 0.25. Take MGFE: the enrichment ratio is 5.11. Regarding VMMP, the enrichment ratio is at most 0.25. For KLVH, the enrichment ratio is at most 0.25.

In the case of IYCM, the enrichment ratio was at most 0.25.

Take VCPK: the enrichment ratio was at most 0.25. Turning to YLWV, the enrichment ratio is at most 0.25. Turning to ITEH, the enrichment ratio is at most 0.25. VEYV: the enrichment ratio was at most 0.25.

With FCSS, the enrichment ratio was at most 0.25. Consider MMSE, for which the enrichment ratio is at most 0.25. Then VQRM, with at most 0.25; and FVKA, with at most 0.25; and QTSR, with at most 0.25. Then ADTQ, with at most 0.25; and KFPE, with at most 0.25; and DCVF, with at most 0.25. Under SRFK stands at most 0.25; under LIGR, at most 0.25. As to GTTK, the enrichment ratio was at most 0.25.

Regarding TVFS, the enrichment ratio is at most 0.25. For the variant FAMF, the enrichment ratio was 2.8. Consider SMYT, for which the enrichment ratio worked out at 0.381. Consider SGWG, for which the enrichment ratio was at most 0.25. Consider FMLT, for which the enrichment ratio is at most 0.25. Consider NKIS, for which the enrichment ratio was at most 0.25. For MTSD, the enrichment ratio is at most 0.25. On to NALI, for which the enrichment ratio came to 4.49. As for HKEF, the enrichment ratio was at most 0.25.

As to NNLP, the enrichment ratio was at most 0.25. As to MSCW, the enrichment ratio was at most 0.25. For the variant NGMD, the enrichment ratio is at most 0.25. As to FCYH, the enrichment ratio was at most 0.25. Take WGIQ: the enrichment ratio was at most 0.25.

On to KAEK, for which the enrichment ratio was at most 0.25. As for HFTV, the enrichment ratio was at most 0.25. Then TGFQ, with 2.99. Then KTIW, with at most 0.25; and GVTV, with at most 0.25.

EHNV: the enrichment ratio was at most 0.25. Under FWGC stands at most 0.25; under YPVA, at most 0.25. On to FPTL, for which the enrichment ratio was at most 0.25. Then RIGQ, with at most 0.25; and HMQV, with at most 0.25; and NTYK, with at most 0.25. Then QFQI, with at most 0.25; and KYMG, with at most 0.25. Under VESL stands at most 0.25.

For the variant LQWK, the enrichment ratio was at most 0.25. Then RIHY, with at most 0.25; and RVHT, with at most 0.25; and RMFW, with at most 0.25.

Regarding ICPI, the enrichment ratio is at most 0.25.

Turning to GRLF, the enrichment ratio was 0.486. For IFGH, the enrichment ratio was at most 0.25.

Take VWFH: the enrichment ratio was at most 0.25. With TTQP, the enrichment ratio is at most 0.25. Take EHSG: the enrichment ratio is at most 0.25. Under MSQS stands at most 0.25; under MQFY, at most 0.25; under IWAT, at most 0.25. Consider RHRH, for which the enrichment ratio is at most 0.25. On to NLFI, for which the enrichment ratio is at most 0.25. Regarding THQQ, the enrichment ratio is at most 0.25. Then TYGR, with at most 0.25; and IQKL, with at most 0.25. For the variant HFYF, the enrichment ratio is at most 0.25. As for YMNG, the enrichment ratio was at most 0.25. Then MYVF, with at most 0.25; and GHSC, with at most 0.25. Then INGH, with at most 0.25; and THSY, with 6.95; and NIRI, with at most 0.25. Take NRTQ: the enrichment ratio is at most 0.25. With GKSA, the enrichment ratio was at most 0.25.

With LVCT, the enrichment ratio was at most 0.25. With GPLD, the enrichment ratio was at most 0.25. In the case of GDNS, the enrichment ratio is at most 0.25. Turning to WRTG, the enrichment ratio is at most 0.25. As to WSNI, the enrichment ratio is at most 0.25. As to RNWT, the enrichment ratio was at most 0.25. In the case of YEIP, the enrichment ratio was at most 0.25. For the variant EPQI, the enrichment ratio was at most 0.25. For HQLF, the enrichment ratio was 0.627. With IMFY, the enrichment ratio is at most 0.25. Consider FFCK, for which the enrichment ratio was at most 0.25.

For ADVF, the enrichment ratio is at most 0.25.

Regarding DMHT, the enrichment ratio is at most 0.25.

Regarding FKMM, the enrichment ratio was at most 0.25. On to IDGG, for which the enrichment ratio is at most 0.25. As to WALM, the enrichment ratio stood at 6.02. NFMA: the enrichment ratio is at most 0.25. In the case of HVLD, the enrichment ratio was at most 0.25. For NGLR, the enrichment ratio is at most 0.25. Under RTRL stands at most 0.25; under WITW, at most 0.25; under ECGY, at most 0.25. On to YFPN, for which the enrichment ratio was at most 0.25.

As to QCCS, the enrichment ratio was at most 0.25. With EIPN, the enrichment ratio was at most 0.25. Regarding ITWH, the enrichment ratio was at most 0.25.

Regarding PPCV, the enrichment ratio was at most 0.25. For DCEC, the enrichment ratio was at most 0.25. Under TAMF stands 19.6. Under TPSN stands at most 0.25; under SLAN, 13.8. In the case of GHHV, the enrichment ratio was at most 0.25.

Regarding LKLT, the enrichment ratio was at most 0.25. Then SCDN, with at most 0.25; and SVSC, with 10.1; and DTVI, with at most 0.25. Then NTSM, with at most 0.25. For HRRY, the enrichment ratio is at most 0.25.

These data come from a collection of fitness landscapes (doi:10.1126/science.1257360).
